In the supplement of paper PMC10126150:
Sequences with one replicate were seen in a single cluster, so their values are uncertain.

Test system: ATP
Experiment: switch fluorescence ratio, 500 uM ATP over buffer (Cy3 cluster intensity, sum of 5 cycles each) (fold (ratio)); higher = stronger signal-on switching upon ATP binding; sequences stand for … in TCGTCGGCAGCGTCAGATGTGTATAAGAGACAGTTTTTTTTTTTTTTTTTTTTTTTTT…TC
Conditions: aptamer strand: ATP DNA aptamer (quencher-CACCTGGGGGAGTATTGCGGAGGAAGG + anchor), 100 nM annealed; ATP concentration: 500 uM; one replicate
In short: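 The quencher-labelled ATP aptamer, at 100 nM, was annealed to Cy3-labelled switching-strand clusters on a modified Illumina MiSeq flow-cell. The clusters were imaged in selection buffer, then after 15 min with 500 uM ATP at 22 °C, and this buffer/ATP cycle ran five times with NaOH stripping and re-annealing between runs. Per-cluster fluorescence ratios, summed target-cycle over summed buffer-cycle Cy3 intensity, were averaged per switch-domain sequence. Clusters outside 100-1000 RFU were excluded.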
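Also: ATP exposure 15 min at 22 °C before imaging.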

Sequence | switch fluorescence ratio
TTCTAGGG | 0.94
TATTAGGATG | 1.01
CTATGGCGGG | 0.964
GCTTGCTTTC | 0.965
TCAGGCTTTA | 1.05
TATGAAATTG | 1.01
GATCTCTAGG | 1.01
GCACAGTTGT | 0.98
TCATAGGTTC | 2.38
ATACCTTCA | 2.56
ATCTTGGTTT | 0.995
GGAACTGCGA | 1.08
AGAGCATGAG | 1.03
CAAATATTGA | 0.999
TTATGCTG | 0.987
AAGGCCCGAT | 1
ACACCGTAAA | 1.01
CATGACGATT | 1
GTCTGTGCGC | 0.982
TGGCGTGATG | 0.952
TAGGGCCCCT | 1
AACTAGAAAT | 1.07
CGTAGTTCTA | 1.05

Sequence | switch fluorescence ratio
CCGACCATCG | 1.3
TTTCAATGGC | 1.13
TTCCGTAGGT | 1.03
CGAAAATGGA | 0.965
CGCCCAAATC | 2.13
AAATGACCCT | 1.1
GATCTCTTTT | 0.991
ATATTCCGGT | 0.969
TGTGGAGAAT | 1.03
GGCGGAGTCA | 1.03
CCAATTCCTT | 0.995
CGTGGGTGCG | 1
GCATCGGTGG | 0.937
GTCCTCGGAA | 1.73
GATTTCTAGT | 0.981
TTGAGTAACA | 1.03
AGAGTTTTT | 0.979
CTATTTAGCT | 1.02
CGTATCCTTT | 0.969
ACCTGACTGT | 1.54
GACCTGGATA | 1.03
CGAGGCCTTT | 0.974
AAAAGTCAAA | 1.01

Sequence | switch fluorescence ratio
AACTCCTCTA | 1.05
GCCCGCGGTC | 1.3
TTCATTAAAT | 0.982
CGATTGGCTG | 0.935
CGGGTCTATG | 0.978
AAACGTCATA | 1.09
AAGTAAATTG | 0.985
TCTTGCTCCC | 1.81
AATTCGGTT | 1.01
ATATGCTCGC | 1.21
GGCGTTGGGA | 1
AGCCGATCTG | 0.973
GGTTCAGTCT | 1.03
CTCTTCGGGG | 1.06
TAAACATCGA | 0.965
AGTTGTAGG | 1
ACCTTCATTG | 1.36
GCGTGCGCTT | 1.01
ATGTAATCTC | 1.03
TTGGCACGTT | 0.996
CTATGTCGTA | 1
GCAAAACCTC | 1.01
GTTGGAAAA | 0.988

Sequence | switch fluorescence ratio
CGGGGTAATA | 2.46
ATAAAGATTA | 0.96
CCGCAGAAAG | 3.17
TCCTTCATAG | 1.16
GATTACGTAC | 1.64
CCGGAGAGCC | 1.51
GGCTGGGACT | 0.937
ATAGACCTAA | 1.02
GACATAGTTG | 0.979
CGGCATTACC | 2.63
CGGTGTATG | 0.939
AATGCACAAG | 0.983
TTCCGTTGGT | 0.973
CGCCGCCATC | 4.2
GGGAACTGTG | 1.02
AAGCTGGCCG | 0.967
TTAGACGCCG | 1.03
GGGGATCCTG | 0.951
TCGCATGCTT | 1.19
TAGAGTCAGA | 1.04
AAGTCTATCG | 1.03
GAATACCCCT | 1.1
AGCCCAGCTC | 0.979

Sequence | switch fluorescence ratio
ACCCGAATGG | 1.03
AGTGCCTGAT | 1.03
CGGGCCCCC | 0.98
AGTAACAAAA | 0.999
GCGAGGACAC | 1.02
AACTGGGATT | 1.03
TTGTAGCTAT | 3.28
TTTTGGTAAG | 1.02
CGGTGAGGG | 1.02
GTGGCATCTG | 1.03
ATCAGACAAC | 1.04
AGATTACCTC | 1.03
TTCATGTTCG | 1
CCCTTTCGTA | 0.998
GTGATGCCGA | 0.962
GGACGCGGGG | 0.97
ATTGATATGT | 1
TAGTGGAGAC | 1.08
TCGCTAGAAT | 0.994
ATCGGTAT | 1.02
TAATACTCTA | 1.16
GTTCGCCGAT | 1.03
CAGGTATGAT | 1.01

Sequence | switch fluorescence ratio
TGGCAACGGT | 1.03
GTTAATTGCA | 1.35
ACGACGGGAT | 1.07
TGGTTTGCCA | 1.02
TGTGGTGACG | 0.991
TTAAGTCGTC | 1.04
ATAATTTCCC | 0.968
CGGCTTGGGT | 0.955
TTTCAATATG | 0.987
CATTATGTCA | 0.978
AGACTCACCT | 1.33
GCTTTAACCC | 1.01
ACGGGGGATA | 1.04
GGGGACCAAG | 1
GCTGCTCTCG | 1.01
GCGTGATTCA | 0.986
AGTTGGCCTA | 0.95
TTACGATCTT | 0.99
ACCGCGTCGG | 0.998
CAGGTATCGA | 0.998
GGGCACTTAG | 1.03
GGTCAATCTT | 0.962
CGAATATGT | 0.989

Sequence | switch fluorescence ratio
AGTGAAGTGG | 1.03
GATTCAGTTC | 0.996
TACGGGATCT | 1.02
ATGCGGAGCT | 1.02
CGTAAGTCGG | 0.887
CCACGTACGT | 1.71
CCTACCGAGC | 2.91
TATCGGGTGA | 1
GGGACAGCAC | 1.25
TGCCAAGGAA | 0.998
AGGCTTGAAT | 1.01
ATGTTTGGA | 1.02
GGCGGTTGGT | 0.986
TTGGGTCTGA | 0.994
ATAGCACCCG | 1.03
CCGTGTATAG | 1.73
CTGAATGTAA | 1.13
GAAAACCGTA | 1.02
CGAATAGTTT | 1.04
